Experimental data taken from PubChem BioAssay AID1347073 (National Center for Advancing Translational Sciences (NCATS), 2019).
The campaign covered roughly 45,000 compounds. About 200 (0.44%) were called active. Another 7% or so got no clear call; they are omitted. The call rests on the fitted dose curve; in most records, active means well fitted activation curve with a large enough effect; inconclusive means small, poorly fitted or top-dose-only effect; inactive means no such curve, though single readings can be large or run the other way. The list shows a part of the results. Peptide text beside a SMILES is read from it. * marks the point of attachment. Boc = CC(C)(C)OC(=O)*

Experiment: qHTS of TDP-43 Inhibitors: NCGC Sytravon Library Screen; further: 0% is about no effect; nearly all actives have a fitted effect of over 55% in size
Details: yeast TDP-43 toxicity rescue, BacTiter-Glo growth, 24 h; series mostly up to 46.1 µM; growth rescue (activation): at the top concentration
Summary of the method: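 TDP-43-expressing yeast, pregrown in raffinose, seeded at OD600 0.02 in galactose medium with compound for 24 hr at 30 deg C. Growth read by BacTiter-Glo luminescence, so rescue of toxicity appears as activation.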

Structure (SMILES)	growth rescue (activation)
Cc1nc2nc(C)c(NS(=O)(=O)c3cccs3)c(=O)n2[nH]1	inactive: 14.1%
COc1ccc2[nH]c3nc(SCC(=O)NC4CC4)nnc3c2c1	inactive: -23.5%
O=C(CN1C(=O)NC2(CCCCC2)C1=O)N1CCN(S(=O)(=O)c2ccccc2)CC1	inactive: 10%
Cc1ccc(C)n1-c1ccncc1	inactive: 15.6%
Cc1cc(Oc2nc3ccccn3c(=O)c2/C=C(\C#N)C(=O)NC2CCS(=O)(=O)C2)ccc1Cl (stereo unspecified)	inactive: -1.3%
CN(C(=O)CSc1nc2ccccc2c(=O)n1-c1ccccc1F)C1CCS(=O)(=O)C1 (stereo unspecified)	inactive: -9.97%
O=C(C1CCCN1S(=O)(=O)c1ccc(Cl)cc1)N1CCCCC1 (stereo unspecified)	inactive: 0.792%
CCOc1ccc(NC(=O)NC(C)c2c(-n3cccc3)sc(C)c2C)cc1 (stereo unspecified)	inactive: 13.5%
CCOC(=O)CSc1nc2sc3c(c2c(=O)n1Cc1ccccc1)CC(C)CC3 (stereo unspecified)	inactive: -0.873%
Cn1ccnc1C(O)(c1ccccc1)c1ccccc1	inactive: 0.802%
O=S1(=O)CCC(NC(=S)N2CCCCCC2)C1 (stereo unspecified)	inactive: 6.81%
CCC/C=N/NC(=O)c1[nH]c2c([N+](=O)[O-])cccc2c1C	inactive: 13.1%
Cc1ccc(C)c(NC(=O)c2cc(-c3ccccc3O)n[nH]2)c1	inactive: 14.4%
O=C(Cc1ccccc1F)Nc1ccc(SC(F)F)cc1	inactive: 7.81%
Cc1c(C(=O)NCc2ccco2)oc2ccccc12	inactive: 10.1%
CCOC(=O)C1=C(c2ccccc2)NC(=O)NC1c1cc(Cl)c(O)c(OC)c1 (stereo unspecified)	inactive: 9.77%
CC(=O)c1ccc(N2CCN(C(=S)Nc3ccc(Oc4ccccc4)cc3)CC2)cc1	inactive: -1.19%
O=C(Cn1nc(C(=O)O)c2ccccc2c1=O)Nc1ccc(F)cc1	inactive: 12.6%
COc1ccccc1N1CCN(C(=O)COc2ccc(S(=O)(=O)NC(C)C)cc2)CC1	inactive: 4.78%
Cc1c(N2C(=O)c3ccccc3C2=O)c(=O)n(-c2ccccc2)n1C	inactive: -5.39%
COc1ccc(CN2CCC(C(=O)NC(c3ccc4c(c3)OCO4)c3ccccn3)CC2)cc1 (stereo unspecified)	inactive: 3.58%
O=C(Nc1ccc2oc(=O)ccc2c1)c1cc([N+](=O)[O-])ccc1N1CCOCC1	inactive: -3.26%

Structure (SMILES)	growth rescue (activation)
Cc1cc(O)c(C2=Nc3ccccc3SC(c3ccc(Cl)cc3)C2)c(=O)o1 (stereo unspecified)	inactive: 8.7%
Cn1cccc1/C=N/NC(=O)Cc1ccccc1	inactive: -1.65%
O=C(NCc1cccc(Cl)c1)C1CCC(=O)N(CCN2CCOCC2)C1 (stereo unspecified)	inactive: 17.8%
CCCN1C(=O)c2ccccc2CC1(C)C(=O)NC1CCCCC1 (stereo unspecified)	inactive: 7.14%
COc1ccc(C(C)=O)cc1Cn1c(=O)cc(C)[nH]c1=O	inactive: 5.49%
O=S(=O)(c1cccs1)N1CCN(c2ccc(F)cc2)CC1	inactive: 14%
CC(c1ccon1)N(C)Cc1cn(C)nc1-c1ccc2c(c1)OCCO2 (stereo unspecified)	inactive: 9.28%
CCOC(=O)c1cc(-c2ccccc2)sc1NC(=O)C(C)OC(=O)c1cccnc1Cl (stereo unspecified)	inactive: -1.91%
CSc1ccc(NC(=O)C2(C)CCN2C(=O)c2cc(C)n(C)n2)cc1 (stereo unspecified)	inactive: 10.8%
CCN1CCN(CCOc2cccc(Cl)c2Cl)CC1	inactive: -3.13%
CCOC(=O)C(Cc1ccc(O)cc1)NC(=O)CNC(=O)C(CC(C)C)NC(=O)OC(C)(C)C (stereo not drawn) (Boc-Leu-Gly-Tyr-OEt; configuration not given here)	inactive: 3.2%
NC(=O)NC(CC(=O)Nc1cccnc1)c1cccc(Br)c1 (stereo unspecified)	inactive: 6.01%
O=C(NCCCN1CCOCC1)c1sc2cc(F)ccc2c1Cl	inactive: -1.98%
CCCc1ccc(C(O)c2ncc(-c3ccccc3)[nH]2)cc1 (stereo unspecified)	inactive: 6.72%
CC(=O)Nc1ccc(S(=O)(=O)N=S(C)(C)=O)cc1	inactive: 1.38%
O=C1/C(=C\c2cccc(O)c2O)SC(=S)N1Cc1ccccc1	inactive: -92.6%
O=C(N/N=C/c1ccc(-c2ccccc2C(=O)O)o1)c1cccs1	inactive: 6.26%
NS(=O)(=O)c1ccc(N/N=C2/CCCCC2C2CCCCC2)c([N+](=O)[O-])c1 (stereo unspecified)	inactive: -55.4%
Cc1cccc(Oc2ccc(Cl)cc2N)c1	inactive: 5.06%
COc1ccc2[nH]c(=O)c(CN(Cc3ccc4c(c3)OCO4)C(C)=O)cc2c1	inactive: 11%
CCOC(=O)CSc1nn(-c2ccccc2)c(=S)s1	inactive: 7.6%
COc1ccc(/C=N/Nc2ncc(C(F)(F)F)cc2Cl)c(OC)c1OC	inactive: 23.6%

Structure (SMILES)	growth rescue (activation)
COc1ccc(/C=C(/Sc2nnc(-c3ccc(Cl)cc3)o2)C(=O)O)cc1	inactive: 6.5%
COc1ccc(-c2nnc(SCC(=O)N(C)C3CCS(=O)(=O)C3)n2C(C)C)cc1 (stereo unspecified)	inactive: -5.77%
CC1CN(c2nc3ccccc3cc2-c2ccccc2)CC(C)O1 (stereo unspecified)	inactive: 4.18%
COc1cc2c(cc1OC)C1(CCCC1)CNC2c1cccc([N+](=O)[O-])c1 (stereo unspecified)	inactive: -16.7%
O=C(Nc1ccccc1[N+](=O)[O-])c1cc(S(=O)(=O)Nc2ccccn2)ccc1Cl	inactive: 3.2%
CCCNC(=O)c1cc(C2CCCCN2S(C)(=O)=O)on1 (stereo unspecified)	inactive: -8.85%
O=C(Nc1ccccc1NC(=O)C1CCCO1)c1ccco1 (stereo unspecified)	inactive: 0.0759%
O=C(Nc1ccc(N2CCN(C(=O)c3ccc(Cl)cc3)CC2)cc1)c1ccc(Br)o1	inactive: 6.62%
Cc1nc(NC(=O)/C=C/c2ccc(F)cc2)sc1C(=O)N(C)C	inactive: 11.3%
O=c1c2ccccc2[nH]c(=S)n1CCc1ccccc1	inactive: 26.3%
CCOc1ccc(CN2C(=O)CC(=O)N(S(=O)(=O)c3ccc(OCC)cc3)C2=O)cc1	inactive: 40.5%
CS(=O)(=O)N1CCN(c2ccc(NC(=S)NC(=O)c3ccc4c(c3)OCO4)cc2)CC1	inactive: -2.52%
C=C(C)Cc1c(C)c(C#N)c2[nH]c3ccccc3n2c1=O	inactive: -24.8%
COc1ccc(OCC(=O)Nn2c(-c3ccc(OC)cc3)nc3ccccc3c2=O)cc1	inactive: 3.71%
Cn1cc(-c2ccc(C(=O)NCc3cccc(Cl)c3)c3occc23)cn1	inactive: -1.88%
COc1ccccc1/C=N/NC(=O)CSc1cc(C)nc2ccccc12	inactive: 17.3%
CC1(C)CC(=O)C(C=NCCN2CCN(CC(=O)Nc3ccccc3)CC2)=C(O)C1	inactive: 4.48%
O=C1NC(=O)C(c2ccc(F)cc2)N1 (stereo unspecified)	inactive: -0.295%
CC(C)C(NS(=O)(=O)/C=C/c1ccccc1)C(=O)NCc1ccc(F)cc1 (stereo unspecified)	inactive: -12.9%
O=C(Nc1ccc2oc(-c3cccnc3)nc2c1)c1ccc(-c2ccccc2)o1	inactive: 35%
CNS(=O)(=O)c1cccc(C(=O)OCC(=O)c2c(N)n(C)c(=O)n(C)c2=O)c1	inactive: 28.4%
Cn1c(=O)n(C)c2cc(NC(=O)c3ccccc3[N+](=O)[O-])c(Br)cc21	inactive: -6.52%

Structure (SMILES)	growth rescue (activation)
O=C(NCc1ccc(C(F)(F)F)cc1)c1cccc2c(-c3ccc(F)c(F)c3)coc12	inactive: -6.34%
COc1ccccc1N(CC(=O)NCc1ccccc1)S(C)(=O)=O	inactive: 7.37%
O=C(N/N=C/c1cccc(F)c1)c1c(O)c2c([nH]c1=O)CCCC2	inactive: 4.02%
CCOc1ccc(/C=N/OCC(=O)NC(c2ccccc2)c2ccccc2)cc1	inactive: -7.26%
CCN(C(=O)CSc1nc2cc(Cl)ccc2c(=O)n1Cc1ccco1)C1CCS(=O)(=O)C1 (stereo unspecified)	inactive: 3.37%
COc1cccc(/C=N/Nc2nnc3c(n2)[nH]c2ccccc23)c1OC	inactive: -5.59%
Cc1cc2nc(Sc3c([N+](=O)[O-])nc(C)n3Cc3ccccc3)[nH]c2cc1C	inactive: 3.44%
COc1ccc(CC(=O)Nc2c3c(nn2-c2cccc(C)c2C)CS(=O)C3)cc1 (stereo unspecified)	inactive: 28.4%
Cc1ccc(NC(=O)C2CCCN(c3nccc(C)n3)C2)c(C)c1 (stereo unspecified)	inactive: 12.7%
CCOC(=O)N1CCC(=NNC(=O)COc2cccc(C)c2)CC1	inactive: 2.65%
CC(C)C[C@H](NC(=O)Nc1cccc(Cl)c1)C(=O)O	inactive: -21.5%
CCOC(=O)/C(C#N)=C1/SC(CCO)C(=O)N1c1ccccc1 (stereo unspecified)	inactive: 33.8%
COc1ccc2c(c1)-c1nc(NC(=O)c3ccc(C)cc3)sc1CC2	inactive: 11.3%
Cc1ccc(S(=O)(=O)N2CCC[C@H]2C(=O)NC2=NCCS2)cc1	inactive: 17.9%
CC(C)c1nnc(NC(=O)CS(=O)(=O)Cc2ccccc2)s1	inactive: 14.4%
O=S(=O)(c1ccccc1)c1nc(-c2cccs2)oc1NCc1cccnc1	inactive: 12.3%
COc1ccc(C(=O)O)cc1S(=O)(=O)Nc1ccc(N2CCCCC2)cc1	inactive: 12.6%
Cc1[nH]n(-c2ccccc2)c(=O)c1C(=O)Nc1ccccc1	inactive: -2.34%
COc1ccc(-c2cn3cccnc3n2)cc1	inactive: 23.2%
CC(CNC(=O)CN1C(=O)CCSc2ccccc21)c1ccccc1 (stereo unspecified)	inactive: -4.16%
Cc1c(Cl)cccc1NC(=O)Nc1ccc(C(=O)N2CCCC2)cc1	inactive: -34.9%
O=C(N/N=C/c1cccnc1)c1cc(O)c(O)c(O)c1	inactive: -14.6%

Structure (SMILES)	growth rescue (activation)
Cc1ccc(S(=O)(=O)N2CCCC(C(=O)NC3CC3)C2)cc1 (stereo unspecified)	inactive: -0.258%
N#Cc1ccccc1OCC(=O)OCC(=O)NC1CCCCC1	inactive: 8.2%
CCN(CC)C(=O)CS(=O)(=O)CC(=O)Nc1cc(OCCOC)c(Cl)cc1Cl	inactive: -7.11%
O=C(NCC(=O)N1CCN(c2ccccc2F)CC1)c1ccco1	inactive: 0.59%
COc1ccc(N2CCN(C(=O)CCNS(=O)(=O)c3ccc(C)cc3)CC2)cc1	inactive: 3.54%
O=C(N/N=C/c1cc(Cl)cc([N+](=O)[O-])c1O)NC12CC3CC(CC(C3)C1)C2	inactive: 19.2%
Cc1c(O)nc(SCC(=O)Nc2ccc(Cl)cc2Cl)n(-c2ccc(F)cc2)c1=O	inactive: 4.76%
Cc1ccnc(SCC(=O)c2ccc(Br)cc2)c1C#N	inactive: 16.9%
Cc1ccc(NC(=S)N=Nc2c(O)n(C)c3ccc(S(=O)(=O)N4CCOCC4)cc23)cc1C	inactive: 22.6%
Cn1c(SCC(=O)N2CCCC2)nnc1-c1cccs1	inactive: -29.2%
CNC(=O)CC1C(=O)N(c2ccc(F)cc2)C(=S)N1NC(=O)c1ccc(Cl)cc1 (stereo unspecified)	inactive: -8.09%
O=C(NCCCN1CCOCC1)c1cc(-c2ccc(Cl)c(Cl)c2)on1	inactive: -11.3%
CC(=O)Nc1ccc(NC(=O)CC2(CC(=O)N3CCOCC3)CCCC2)cc1	inactive: 23.2%
COc1cc(/C=N/n2c(-c3n[nH]c4c3CCC4)n[nH]c2=S)cc(OC)c1O	inactive: 3.65%
Cc1[nH]c(=O)[nH]c(=O)c1/C=C/C(=O)OCC(C)C	inactive: -0.814%
Cc1cc(C)cc(Nc2cc(=O)n(C3CCCCC3)c(=O)[nH]2)c1	inactive: 9.28%
COc1ccc(OC)c(-c2csc(NC(=O)CSc3ccc(Br)cc3)n2)c1	inactive: 5.15%
CCOC(=O)C1CCC(CN(Cc2ccccc2C)S(=O)(=O)c2ccc([N+](=O)[O-])cc2)CC1 (stereo unspecified)	inactive: -3.63%
